# Only a part is listed here, and it is no random draw. The list includes weakly bound sequences.
# Assays:
# Experiment in all cases: protein-binding microarray (PBM)
# Details in all cases: PBM: ~300 nM protein, 6 mM HEPES pH 7.8, 80 mM KCl, 0.5 mM EDTA, 0.5 mM EGTA, 6% glycerol, 35 ng/ul poly-dIdC, 1% milk, 1 h, room temperature; Ap Aiptasia and Nv Nematostella (sea anemones) / Co Capsaspora / Aq Amphimedon (sponge) / Dm Drosophila / Hu human; RHD is the Rel homology domain; high values mean tight binding; most listed sequences are background and not binding sites; double strand, one strand shown
# GST-Ap-NF-kB RHD = molecular target: T1, GST-Ap-NF-kB RHD (UniProt A0A913YAJ5)
# T1 sequence: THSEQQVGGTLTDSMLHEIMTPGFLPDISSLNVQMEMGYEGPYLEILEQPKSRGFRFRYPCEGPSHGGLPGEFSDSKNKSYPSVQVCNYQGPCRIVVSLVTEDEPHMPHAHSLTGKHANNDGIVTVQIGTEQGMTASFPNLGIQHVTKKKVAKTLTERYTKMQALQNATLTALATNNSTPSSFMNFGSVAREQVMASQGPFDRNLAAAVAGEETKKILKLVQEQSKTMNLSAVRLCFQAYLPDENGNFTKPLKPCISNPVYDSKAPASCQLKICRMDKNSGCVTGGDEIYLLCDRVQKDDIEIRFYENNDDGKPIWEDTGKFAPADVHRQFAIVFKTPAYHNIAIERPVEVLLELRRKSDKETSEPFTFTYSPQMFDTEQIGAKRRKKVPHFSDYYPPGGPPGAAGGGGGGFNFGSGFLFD
# [1] = molecular target: T2, GST-Nv-NF-kB (Cys allele) (UniProt E5G601)
# T2 sequence: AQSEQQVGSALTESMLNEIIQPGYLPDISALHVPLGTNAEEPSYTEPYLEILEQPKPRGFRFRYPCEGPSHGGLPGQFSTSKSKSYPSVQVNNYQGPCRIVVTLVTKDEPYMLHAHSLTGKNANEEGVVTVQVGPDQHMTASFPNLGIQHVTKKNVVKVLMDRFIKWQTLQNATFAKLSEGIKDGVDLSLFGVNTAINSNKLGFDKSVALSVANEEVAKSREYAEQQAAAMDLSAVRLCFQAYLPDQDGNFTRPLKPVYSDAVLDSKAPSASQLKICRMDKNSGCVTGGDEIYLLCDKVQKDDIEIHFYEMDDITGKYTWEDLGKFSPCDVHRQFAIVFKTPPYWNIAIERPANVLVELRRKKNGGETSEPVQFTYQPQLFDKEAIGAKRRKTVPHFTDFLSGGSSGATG
# GST-Co-NF-kB = molecular target: T3, GST-Co-NF-kB (UniProt F1ARL5)
# T3 sequence: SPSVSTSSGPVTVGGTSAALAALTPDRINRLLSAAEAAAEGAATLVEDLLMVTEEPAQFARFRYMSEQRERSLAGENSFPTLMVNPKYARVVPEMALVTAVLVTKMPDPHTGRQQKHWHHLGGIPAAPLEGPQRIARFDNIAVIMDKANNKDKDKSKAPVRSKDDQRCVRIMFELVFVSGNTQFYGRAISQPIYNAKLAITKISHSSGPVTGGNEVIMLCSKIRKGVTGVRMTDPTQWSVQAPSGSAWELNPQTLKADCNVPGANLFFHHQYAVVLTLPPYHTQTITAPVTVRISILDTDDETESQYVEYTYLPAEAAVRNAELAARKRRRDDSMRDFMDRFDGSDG
# GST-Dm-Relish = molecular target: T4, GST-Dm-Relish (UniProt Q94527)
# T4 sequence: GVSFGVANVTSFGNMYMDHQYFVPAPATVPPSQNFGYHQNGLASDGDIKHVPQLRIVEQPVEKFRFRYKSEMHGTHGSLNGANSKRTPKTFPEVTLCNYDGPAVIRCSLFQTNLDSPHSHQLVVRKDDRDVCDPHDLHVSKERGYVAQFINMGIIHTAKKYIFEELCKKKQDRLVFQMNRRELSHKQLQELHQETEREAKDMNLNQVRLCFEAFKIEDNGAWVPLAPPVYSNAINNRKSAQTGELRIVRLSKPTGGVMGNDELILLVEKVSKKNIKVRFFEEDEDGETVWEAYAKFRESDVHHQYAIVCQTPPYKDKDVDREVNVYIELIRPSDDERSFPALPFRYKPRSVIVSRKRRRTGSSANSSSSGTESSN
# GST-Aq-NF-kB = molecular target: T5, GST-Aq-NF-kB (UniProt A9Y5G7)
# T5 sequence: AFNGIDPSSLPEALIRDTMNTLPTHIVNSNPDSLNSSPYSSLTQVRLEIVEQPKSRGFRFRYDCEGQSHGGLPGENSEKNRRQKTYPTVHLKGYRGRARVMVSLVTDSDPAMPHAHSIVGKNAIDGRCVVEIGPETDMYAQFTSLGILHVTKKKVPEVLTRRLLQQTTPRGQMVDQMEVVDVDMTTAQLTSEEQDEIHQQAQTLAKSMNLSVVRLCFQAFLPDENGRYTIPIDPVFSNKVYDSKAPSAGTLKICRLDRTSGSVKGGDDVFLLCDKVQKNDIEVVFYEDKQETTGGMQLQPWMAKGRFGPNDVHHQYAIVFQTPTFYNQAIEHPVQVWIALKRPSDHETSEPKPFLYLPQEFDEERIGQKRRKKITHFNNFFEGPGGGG
Sequence,binding signal (GST-Ap-NF-kB RHD) [z-score],binding signal [1] [z-score],binding signal (GST-Co-NF-kB) [z-score],binding signal (GST-Dm-Relish) [z-score],binding signal (GST-Aq-NF-kB) [z-score]
CCGATTAACATCATTCCGGAATATGATGTTAATCGGGTCTTGATTCGCTTGACGCTGCTG,-0.378,0.174,-0.782,-0.649,0.345
CCGATTAACATCATCAACATACATGATGTTAATCGGGTCTTGATTCGCTTGACGCTGCTG,-0.579,0.162,0.211,-0.447,-0.404
CCGATTAACATCAACGCCGGCATTGATGTTAATCGGGTCTTGATTCGCTTGACGCTGCTG,-0.134,0.364,-1.04,-1.16,-0.545
CCGATTAACATCATATAAGGGCCTGATGTTAATCGGGTCTTGATTCGCTTGACGCTGCTG,0.245,-0.119,-1.18,-0.346,0.598
CCGATTAACATCAGGATGCTTATTGATGTTAATCGGGTCTTGATTCGCTTGACGCTGCTG,-0.586,-0.214,0.517,-0.746,-0.355
CCGATTAACATCAAACACTGCTTTGATGTTAATCGGGTCTTGATTCGCTTGACGCTGCTG,-0.605,-0.849,-0.757,-0.877,-0.732
CCGATTAACATCAGTGACTCAGTTGATGTTAATCGGGTCTTGATTCGCTTGACGCTGCTG,-0.166,-0.3,-1.06,-0.548,-0.281
CCGATTAACATCACACGTAAAGCTGATGTTAATCGGGTCTTGATTCGCTTGACGCTGCTG,-0.544,-0.859,0.244,0.713,-0.378
CCGATTAACATCAAGGCGCTCTATGATGTTAATCGGGTCTTGATTCGCTTGACGCTGCTG,0.0202,-0.201,-1.03,-0.721,-0.0756
CCGATTAACATCACAGCGTGAGGTGATGTTAATCGGGTCTTGATTCGCTTGACGCTGCTG,0.201,-0.682,-0.717,1.34,0.154
CCGATTAACATCAGACACCAACCTGATGTTAATCGGGTCTTGATTCGCTTGACGCTGCTG,-0.284,0.326,-0.135,-0.869,-0.427
CCGATTAACATCATTTGCTCGATTGATGTTAATCGGGTCTTGATTCGCTTGACGCTGCTG,-0.411,-0.903,0.209,-0.565,-0.592
CCGATTAACATCACGTCGAGTTTTGATGTTAATCGGGTCTTGATTCGCTTGACGCTGCTG,-0.317,-0.284,-0.729,-0.112,-0.275
CCGATTAACATCACGGAATGTACTGATGTTAATCGGGTCTTGATTCGCTTGACGCTGCTG,-0.0219,-0.525,0.104,1.8,0.462
CCGATTAACATCATGCTACTATCTGATGTTAATCGGGTCTTGATTCGCTTGACGCTGCTG,-0.0732,-0.0155,-0.436,-0.846,-0.436
CCGATTAACATCAATCAGTATGATGATGTTAATCGGGTCTTGATTCGCTTGACGCTGCTG,-1.2,-0.643,-0.0937,-0.921,-0.561
CCGATTAACATCAGGAAATTGGATGATGTTAATCGGGTCTTGATTCGCTTGACGCTGCTG,-0.435,0.397,0.21,-0.416,-0.289
CCGATTAACATCACGCAAATTCCTGATGTTAATCGGGTCTTGATTCGCTTGACGCTGCTG,-0.0374,0.0485,0.537,0.6,0.187
CCGATTAACATCAGGACTCAGTATGATGTTAATCGGGTCTTGATTCGCTTGACGCTGCTG,-0.518,-1.26,-0.496,-0.76,-0.405
CCGATTAACATCACGGCATGTGTTGATGTTAATCGGGTCTTGATTCGCTTGACGCTGCTG,-0.428,-0.267,-0.0449,0.0402,-0.37
CCGATTAACATCAAAGATTTTCCTGATGTTAATCGGGTCTTGATTCGCTTGACGCTGCTG,0.0165,0.00981,0.598,-0.0291,0.713
CCGATTAACATCAGGAAATTATATGATGTTAATCGGGTCTTGATTCGCTTGACGCTGCTG,-0.267,-0.239,0.594,0.0223,0.252
CCGATTAACATCAGTGCTCGGTCTGATGTTAATCGGGTCTTGATTCGCTTGACGCTGCTG,-0.153,0.218,-0.71,-0.792,-0.32
CCGATTAACATCAGAATCTCCTCTGATGTTAATCGGGTCTTGATTCGCTTGACGCTGCTG,-0.216,-0.213,-0.633,-0.802,-0.269
CCGATTAACATCAACTAGTACATTGATGTTAATCGGGTCTTGATTCGCTTGACGCTGCTG,-0.0084,0.00852,-0.156,-0.0486,-0.253
CCGATTAACATCAGGCCGCCCGCTGATGTTAATCGGGTCTTGATTCGCTTGACGCTGCTG,0.247,-0.34,-0.428,-0.667,-0.266
CCGATTAACATCAGTGGAAAGTATGATGTTAATCGGGTCTTGATTCGCTTGACGCTGCTG,-0.0365,0.0873,0.544,0.0163,-0.178
CCGATTAACATCATCAGTGGGCCTGATGTTAATCGGGTCTTGATTCGCTTGACGCTGCTG,0.213,-0.499,-0.89,-0.45,0.151

# Reference: article PMC5700166
